# Reference: PubChem BioAssay AID1346428 (National Center for Advancing Translational Sciences (NCATS), 2018)
# Several values for one entry are separate records, joined by “and”; a condition that tells them apart may be missing. Identical values can stand only once. In all, about 48,000 compounds went through this assay and about 1,200 (2.5%) were called active. Roughly 2% stayed inconclusive and do not appear here.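 How the source made its calls: active means activation of at least 60% and not above a set upper limit (about 1 call in 100 departs from these limits); inconclusive means activation of 40% to 60%, or above that upper limit; inactive means activation under 40%.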 Some of the results follow.
# Target: Probable G-protein coupled receptor 32 (Homo sapiens) (UniProt O75388)
# Test: qHTS for Agonists of Human Resolvin D1 Receptor DRV1; further: 0% is about no effect
# Details: CHO-K1 GPR32 beta-arrestin PathHunter luminescence, 90 min; at 76.9 µM; active compounds read high; zero percent set by DMSO-only wells
# Procedure, shortened: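 Step 1: seed CHO-K1 GPR32 beta-arrestin cells, 2,500/well, overnight at 37 °C. Step 2: add compounds, 90 min at 37 °C. Step 3: detection reagent, 1 h ambient, then luminescence.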
# Sequence of UniProt O75388 (O75388 whole entry, looked up): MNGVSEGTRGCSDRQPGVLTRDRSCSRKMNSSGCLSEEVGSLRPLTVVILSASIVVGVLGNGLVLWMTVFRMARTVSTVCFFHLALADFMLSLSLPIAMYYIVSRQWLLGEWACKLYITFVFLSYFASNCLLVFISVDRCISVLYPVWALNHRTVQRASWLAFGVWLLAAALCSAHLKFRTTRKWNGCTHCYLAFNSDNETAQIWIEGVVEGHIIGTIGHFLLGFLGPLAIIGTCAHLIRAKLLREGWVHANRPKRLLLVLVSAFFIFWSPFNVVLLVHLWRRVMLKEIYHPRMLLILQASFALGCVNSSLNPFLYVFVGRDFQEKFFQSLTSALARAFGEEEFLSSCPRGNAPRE
row,Compound,activation
1,Cc1cccc(N2CCN(S(=O)(=O)c3ccc(F)c(C(=O)Nc4ccc(C(C)C)cc4)c3)CC2)c1C,inactive: -6.45%
2,COc1ccc(OC)c(Nc2ncnc3c2cnn3-c2ccc(C)cc2)c1,inactive: 36%
3,Cc1cc(C)cc(NS(=O)(=O)c2ccc3[nH]cc(C(=O)N4CCCCCC4)c(=O)c3c2)c1,inactive: 7.52%
4,COc1ccc(-c2noc(CN3CCN(c4cccc(Cl)c4)CC3)n2)cc1,inactive: 15.6%
5,NCCc1ccc(O)c(O)c1,inactive: -1.56% and inactive: -0.525%
6,C#CC(C)(CC)NC(=O)c1cc2c(n(-c3ccc(Cl)cc3)c1=O)CC(C)(C)CC2=O (stereo not given),inactive: -6.44%
7,O=C(C1CCC1)N1CCCc2cc(S(=O)(=O)Nc3ccc(F)cc3)ccc21,inactive: -8.6%
8,COc1ccccc1N(CC(=O)Nc1ccc(C)c(Cl)c1)S(=O)(=O)c1ccc(C)cc1,inactive: -0.0267%
9,CCOc1ccc(CC(=O)NC2CC(=O)N(c3ccc(C)c(C)c3)C2)cc1 (stereo not given),inactive: 2.63%
10,CC(=O)N1c2ccccc2C(=O)C1N1CCN(c2cccc(C(F)(F)F)c2)CC1 (stereo not given),inactive: -48.6%
11,CC(=O)N1CCc2cc(Br)cc(S(=O)(=O)N3CCN(c4cc(C)ccc4C)CC3)c21,inactive: 2.06%
12,COCCn1c(C)cc(O)c(C(c2ccc(C)cc2)N2CCCCC2)c1=O (stereo not given),inactive: -15.1%
13,Cc1cccc(CNC(=O)CCCN2C(=O)CCn3nc(-c4cn(C)c5ccccc45)cc32)c1,inactive: -7.86%
14,Cn1cc(-c2cc3n(n2)CCC(=O)N3CC(=O)O)c2ccccc21,inactive: -19.4%
15,Cc1ccccc1OCC(=O)N(Cc1ccc(N(C)C)cc1)CC1CCCO1 (stereo not given),inactive: -24.8%
16,OCc1nc2ccccc2n1Cc1c(F)cccc1Cl,inactive: -9.06%
17,CCN1CCN(c2c(S(=O)(=O)c3ccccc3)cnc3ccc(Cl)cc23)CC1,inactive: -17%
18,CCN(CC)c1ccc(NC(=O)c2cc(S(=O)(=O)N3CCc4ccccc43)cn2C)c(C)c1,inactive: -22.7%
19,CCC(=O)NCC(c1ccc2c(c1)OCO2)N1CCN(c2ccccc2)CC1 (stereo not given),inactive: -13.2%
20,CCOc1ccc(NCc2cccn2-c2nnc(N3CCC(C(=O)NCCc4ccc(OC)c(OC)c4)CC3)s2)cc1,inactive: -25%
21,COc1ccc(-c2[nH]nc3nc(-c4cc(OC)c(OC)c(OC)c4)cc(C(=O)O)c23)cc1,inactive: -18%
22,COc1ccc(N2CCN(C(=O)CCc3c(C)nc4cc(-c5ccc(Cl)cc5)nn4c3C)CC2)cc1,inactive: -1.8%

row,Compound,activation
1,Cc1ccc(CCNC(=O)c2cn(C)c3ccc(S(=O)(=O)N4CCCCC4)cc3c2=O)cc1,inactive: -0.835%
2,CCCS(=O)(=O)N1CCCC(C(=O)NCCCOC)C1 (stereo not given),inactive: -5.54%
3,Cc1ccccc1CNC(=O)C(=O)NCC(c1ccco1)S(=O)(=O)c1ccccc1 (stereo not given),inactive: -16.4%
4,COc1ccc(C(=O)Nc2nnc(S(=O)(=O)N(C)c3ccc(Cl)cc3)s2)cc1OC,inactive: 11.6%
5,Cc1ccc2[nH]c(CSc3nnc(NC(=O)c4ccccc4C)s3)cc(=O)c2c1,inactive: 46.8%
6,CCCCCC=CCC=CCCCCCCCC(=O)OCC,active: 63.3%
7,O=C(NCc1ccccc1Cl)c1cc2ccccc2o1,inactive: 22.3%
8,COc1cc(OC)cc(C(=O)Nc2ccc3c(c2)N(C2CCCC2)C(=O)c2ccccc2S3)c1,inactive: -10.5%
9,O=C(CSc1nc2ccccc2nc1Cc1ccccc1)N1CCCCC1,inactive: 34.4%
10,CCc1cccc(NC(=O)CCS(=O)(=O)c2cc(Br)cc3c2N(C(C)=O)CC3)c1,inactive: -12.4%
11,COc1cc(-c2nc3ncccn3c2Nc2ccc(C)cc2C)ccc1O,inactive: -28.6%
12,Cc1ccc(C)c(N2CCN(S(=O)(=O)c3c(C)nc4sccn4c3=O)CC2)c1,inactive: 6.01%
13,CCOc1ccccc1NC(=O)N1CCN(Cc2nc3ccc(C)cc3o2)CC1,inactive: 6.23%
14,CCc1ccc(C2CC(=O)Nc3c2c(C)nn3-c2nc(C)cc(C)n2)cc1 (stereo not given),inactive: -16.5%
15,CCOc1ccc(-c2nnc(SCC(=O)NCc3ccccc3)nc2-c2ccc(OCC)c(OC)c2)cc1OC,inactive: -18.2%
16,CCCCOc1cccc(C(=O)Nc2ccc3oc(-c4cccnc4)nc3c2)c1,inactive: 12%
17,Cc1cc(C)cc(-n2c(SCC(N)=O)nc3c(oc4ccccc43)c2=O)c1,inactive: -1.5%
18,COc1cccc(Nc2c3c(nc4nncn24)CCC3)c1,inactive: -8.02%
19,CCOc1ccccc1NC(=O)Cn1cnc2sc(C)c(S(=O)(=O)N3CCC(C)CC3)c2c1=O,inactive: -9.19%
20,CC1=Nc2cc(C(=O)NC3CCCC3)ccc2Sc2ccc(C)cc21,inactive: -14.4%
21,COC(=O)c1cc(C)nc2c1c(=O)nc(SCc1cccc(C)c1)n2C1CC1,inactive: -11.4%
22,Cc1nn(-c2nc(-c3ccc(F)cc3)cc(C(F)(F)F)n2)c(C)c1Br,inactive: -10.2%

row,Compound,activation
1,COc1ccc(NC(=O)Cn2c(C)cc3ccccc3c2=O)c(OC)c1,inactive: -8.76%
2,COc1cccc(C(=O)Nc2ccccc2C(=O)OCc2cc(=O)n3c(C)csc3n2)c1,inactive: -14.4%
3,O=C(Nc1ccc(N2CCC(c3ccccc3)C2)c(C(=O)O)c1)c1ccc(Cl)cc1 (stereo not given),inactive: 3.99%
4,COc1cccc(NC(=O)CCc2c(C)nc3c4cccnc4nn3c2C)c1,inactive: -4.33%
5,CCOc1ccc(Oc2nc(NCC(C)C)nc(NC(C)(C)C)n2)nn1,inactive: -13.7%
6,CCOC(=O)c1ccccc1NC(=O)Nc1cc2c(cc1N1CCCCC1)n(C)c(=O)n2C,inactive: 29.2%
7,CCOc1ccc(CNC(=O)CCS(=O)(=O)c2cc3c(cc2Cl)NC(=O)CO3)cc1OC,inactive: -15.1%
8,Cc1cccc(NC(=O)CN2C(=O)c3cccnc3Oc3ccc(Cl)cc32)c1C,inactive: -29.3%
9,CSc1ccc(CCNC(=O)CCCn2nc(C)c3sc4ccccc4c3c2=O)cc1,inactive: -18.2%
10,CC(=O)c1ccc(NC(=O)CC2Nc3cccc4cccc(c34)NC2=O)cc1 (stereo not given),inactive: 32.5%
11,COc1ccccc1OCC(=O)N(Cc1ccc(Cl)cc1)CC1CCCO1 (stereo not given),inactive: -11.1%
12,NC(N)=NC(N)=Nc1ccccc1,inactive: 1.4%
13,CCc1cccc(CC)c1NC(=O)c1ccc2c(c1)CCN2S(=O)(=O)c1ccccc1,inactive: 0.0321%
14,COCCCNc1ncnc2onc(-c3ccc(F)cc3)c12,inactive: 35.8%
15,CC(C)CCNC(=O)Nc1ccc2c(c1)N(C)C(=O)c1ccccc1S2,inactive: 16.1%
16,COc1cccc(NC(=O)Cn2cnc3c(nc4n3CCCCC4)c2=O)c1,inactive: 7.2%
17,COc1ccc(C(=O)NCCn2cc(SCC(=O)NCCc3ccc(OC)c(OC)c3)c3ccccc32)cc1,inactive: 43.1%
18,Cc1ccc(NC(=O)Cn2c(=O)c3cc(Cl)ccc3n3nncc23)cc1,inactive: 17.9%
19,Cc1n[nH]c(C)c1S(=O)(=O)N(CC(=O)NC(C)c1ccccc1)c1ccc(C(C)C)cc1 (stereo not given),inactive: 48.1%
20,COCCCNC(=O)CN1C(=O)COc2ccc(S(=O)(=O)N3CCCC3)cc21,inactive: -4.66%
21,CC1=C(c2ccc(C)c(C)c2)S(=O)(=O)N=C1N1CCC(C(=O)NCCc2ccco2)CC1,inactive: -6.51%
22,Cc1ccc(-c2cc(C(=O)N3CCN(S(=O)(=O)c4ccc(Br)cc4)CC3)[nH]n2)cc1C,inactive: -19.3%

row,Compound,activation
1,CS(=O)(=O)N1CCc2cc(C(=O)NCCc3ccccc3)ccc21,inactive: 8.23%
2,COc1ccccc1N1CCN(C(=O)CCNS(=O)(=O)c2ccc3c(c2)CCN3C(=O)C2CC2)CC1,inactive: 36%
3,Cc1ccc(CNC(=O)Cn2cc(S(=O)(=O)Cc3ccccc3F)c3ccccc32)cc1,inactive: -8.68%
4,COc1ccc(Cl)cc1NC(=O)CSC1=Nc2ccccc2C2=NC(CC(=O)NCc3ccc4c(c3)OCO4)C(=O)N12 (stereo not given),inactive: -16%
5,Cc1ccc(NC(=O)c2cnc(SCC(=O)Nc3cc(C)on3)n(C)c2=O)cc1,inactive: -7.88%
6,CCn1c(=O)n(CC)c2cc(N3CCCCC3)c(NC(=O)Nc3ccccc3C(F)(F)F)cc21,inactive: -30.7%
7,Cc1cc(C)n2nc(SCC(=O)Nc3cccc(C(F)(F)F)c3)nc2n1,active: 61.5%
8,COc1ccccc1C(=O)Nc1ccc2c(c1)nc(CN1CCCCC1)n2C,inactive: -7.48%
9,C=CCc1ccccc1OCC(O)CN1CCN(c2ccccc2)CC1 (stereo not given),inactive: -25.1%
10,CCOC(=O)c1ccc(NC(=O)CC2C(=O)N(c3cccc(OC)c3)C(=O)N2Cc2ccc(OC)cc2)cc1 (stereo not given),inactive: 1.01%
11,CCc1ccccc1NC(=O)c1cnc2sc(N3CCOCC3)nn2c1=O,inactive: -0.755%
12,CCC(Oc1ccc(F)cc1)C(=O)Nc1nc(-c2ccc(F)cc2)ns1 (stereo not given),inactive: 22.6%
13,COc1ccc(C(CC(=O)NCc2ccccc2)N2Cc3ccccc3C2=O)cc1 (stereo not given),inactive: -16.3%
14,Cc1ccccc1NC(=O)CSc1nc(=O)n(CCN2CCOCC2)c2c1CCC2,inactive: -2.26%
15,CN(Cc1ccccc1)C(=O)CSc1nc2ccccc2n1Cc1ccccc1F,inactive: -34.4%
16,CC(C)c1cnc2c(c1SCC(=O)NCc1ccccc1)c(=O)n(C)c(=O)n2C,inactive: -25.6%
17,Cc1ccc(-c2nc3ccc(Cl)cn3c2Nc2ccccc2C)s1,inactive: -30.2%
18,COc1ccccc1Cc1nc2ccccc2nc1SCC(=O)Nc1cccc(Cl)c1C,inactive: -8.37%
19,COC(=O)c1ccc(NC(=O)CCc2c(C)nc3c(c2C)c(=O)n(C)c(=O)n3C)cc1,inactive: -7.86%
